Measured values as given in PubChem BioAssay AID1508642 (National Center for Advancing Translational Sciences (NCATS), 2021).
In all, about 43,000 compounds went through this assay and about 200 (0.47%) were called active. Not shown: some 12% with an inconclusive outcome. Calls come from the whole dose curve; as a rule, active = well fitted cell-killing curve with a large enough effect; inconclusive = small, poorly fitted or top-dose-only effect, or effect the other way; inactive = flat fitted curve, though single readings scatter. This is one part of the list.

Experiment: Cell viability qHTS assay in S16 Pmp22-F2sN cells; note: nearly all actives have a fitted effect of over 65% in size
Conditions: S16 Pmp22-F2sN Schwann cells viability, CellTiter-Glo, 24 h; series mostly up to 57.5 µM; activity change, negative = cytotoxicity: at the top concentration
How it was run: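 Viability was measured by CellTiter-Glo luminescence (15 min, room temperature). This followed 24 h at 37 °C of compound exposure (23 nL pin transfer) in S16 Pmp22-F2sN Schwann cells, 500-1,000 per well.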
% is set by controls: 0 for no effect and ±100 for the full control effect.

Row | Structure (SMILES) | activity change, negative = cytotoxicity
1 | Cc1nc2ncnn2c(C)c1CCC(=O)NCc1ccccc1Cl | inactive: 3.56%
2 | CCOc1ccccc1N(CC(=O)N1CCc2ccccc2C1)S(=O)(=O)c1ccccc1 | inactive: -12.3%
3 | CCc1ccc(-c2nc(CS(=O)CC(=O)NCCc3ccc(Cl)cc3)c(C)o2)cc1 (centres undefined) | inactive: 5.88%
4 | O=C1CCSC2(C(=O)N(Cc3ccc(F)cc3)c3ccccc32)N1c1ccc(F)c(F)c1 (centres undefined) | inactive: 10.8%
5 | CCNC(=O)CC1C(=O)N(c2cccc(OC)c2)C(=O)N1Cc1ccc(OC)c(OC)c1 (centres undefined) | inactive: 0.748%
6 | CCOc1ccc2oc(=O)cc(CN3CCN(C(=O)c4ccc(F)cc4)CC3)c2c1 | inactive: -9.27%
7 | COCCn1c(=N)c(C(=O)NC(C)c2ccccc2)cc2c(=O)n3cc(C)ccc3nc21 (centres undefined) | inactive: 1.7%
8 | CCOCc1ccccc1Nc1ncnc2onc(-c3ccc(Cl)cc3)c12 | inactive: 25.4%
9 | CCc1cccc(NC(=O)C(c2ccccc2)N2Cc3ccccc3C2=O)c1 (centres undefined) | inactive: -0.408%
10 | CCC(Sc1nncn2c1cc1oc(C)cc12)C(=O)Nc1ccc(F)cc1 (centres undefined) | inactive: 0.205%
11 | CCOc1ccccc1NC(=O)CCn1nc(C)c(S(=O)(=O)N2CCCCC2)c1C | inactive: 3.91%
12 | COc1ccc(C2C=C(c3ccccc3)Nc3nc(NC(=O)/C=C/c4ccccc4)nn32)cc1 (centres undefined) | inactive: -1.2%
13 | O=C(NCCCc1ccccc1)C1CCN(C(=O)N2CCOc3ccc(Cl)cc32)CC1 | inactive: -17.5%
14 | O=C(Cn1ncc2c3ccccc3n(Cc3cccc(Cl)c3)c2c1=O)NC1CCCCCC1 | inactive: 2.51%
15 | CCc1ccc(NC(=O)CSC2=Nc3ccccc3C3=NC(CC(=O)NCc4ccccc4)C(=O)N23)cc1 (centres undefined) | inactive: 2.87%
16 | CCN1CCSc2ccc(C(=O)NCc3ccc(OC)cc3)cc21 | inactive: 1.19%
17 | COC(=O)CCN(c1ccccc1)S(=O)(=O)c1cc(-c2cc(C)no2)ccc1OC | inactive: 2.5%
18 | CCN(CC)S(=O)(=O)c1ccc2c(c1)c(=O)c(C(=O)N1CCN(c3ccc(F)cc3)CC1)cn2C | inactive: 1.87%
19 | Fc1ccc(-c2noc3ncnc(NC4CCCCC4)c23)cc1 | inactive: -7.19%
20 | Cc1c2cnn(CC(=O)NCCc3ccccc3)c(=O)c2c(C)n1Cc1ccccc1 | inactive: 0.822%
21 | COc1cc(NC(=O)CSc2ncc(S(=O)(=O)c3ccc(Br)cc3)c(=O)[nH]2)cc(OC)c1 | inactive: -7.44%
22 | Cc1cccc(NC(=O)C(=O)NCC(c2ccc3c(c2)OCO3)N2CCN(C)CC2)c1C (centres undefined) | inactive: -11.7%

Row | Structure (SMILES) | activity change, negative = cytotoxicity
23 | COc1ccc(OC)c(NC(=O)c2cccn2-c2nnc(N3CCCCC3)s2)c1 | inactive: 3.11%
24 | COc1ccc(CNC(=O)c2cc3c(=O)oc4ccc(C)cc4c3s2)c(OC)c1 | inactive: 7.64%
25 | COc1ccc(CNC(=O)c2ccc(NC(=O)N3CCCCc4ccccc43)cc2)cc1 | inactive: 6.62%
26 | CCN(CC)S(=O)(=O)c1ccc2oc(C(=O)N(C)Cc3ccccc3)c(C)c2c1 | inactive: 3.7%
27 | CCCCOc1cccc(C(=O)N(Cc2sccc2C)C2CCS(=O)(=O)C2)c1 (centres undefined) | inactive: -13.9%
28 | Cc1cc(Nc2cccc(Cl)c2)nc2ccc(NC(=O)Cc3cccc(C(F)(F)F)c3)cc12 | inactive: -27.4%
29 | COc1ccc(Cn2c(=O)c3oc4ccccc4c3n(Cc3ccc(F)cc3)c2=O)cc1 | inactive: -0.491%
30 | Cc1cccc(N2CCN(C(=O)CCCCn3c(=O)[nH]c4ccsc4c3=O)CC2)c1C | inactive: -24.5%
31 | CCN(CC)S(=O)(=O)c1ccc2c(c1)N(CC(=O)N1CCN(c3ccc(F)cc3)CC1)C(=O)CO2 | inactive: -1.85%
32 | Cc1ccc(C)c(-c2[nH]c3c(c2-c2c(-n4cccc4)n(C)c(=O)[nH]c2=O)c(=O)[nH]c(=O)n3C)c1 | inactive: 3.67%
33 | Cc1ccc(-c2nc(CCNC(=O)C(=O)Nc3ccc(C)cc3C)cs2)cc1 | inactive: -10.7%
34 | CCOc1ccc(CCNC(=O)Cn2nc(-c3ccc(C)cc3)ccc2=O)cc1OCC | inactive: 3.72%
35 | COc1ccc(CNC(=O)c2ccc(CS(=O)(=O)c3ccccc3OC)o2)cc1 | inactive: -0.187%
36 | O=C(CNS(=O)(=O)c1cccs1)N1CCN(c2cccc(C(F)(F)F)c2)CC1 | inactive: -9.4%
37 | COc1cc(CN2CCN(S(=O)(=O)c3ccccc3)CC2)cc(OC)c1O | inactive: 8.36%
38 | CCc1ccccc1NC(=O)C1=C(C)C(=O)OC12CCCCCC2 | inactive: -2.68%
39 | COC(=O)c1ccc(CSc2nc3c([nH]c4ccccc43)c(=O)n2-c2ccc(Cl)cc2)o1 | inactive: 3.02%
40 | Nc1nnc2c(n1)[nH]c1ccccc12 | inactive: -2.06%
41 | COc1cccc(CSc2nc3cc(C(=O)NC4CCCC4)ccc3c(=O)n2Cc2ccccc2)c1 | inactive: 4.6%
42 | CCCC(=O)N(c1ccc2oc3c(c2c1)CCCC3)S(=O)(=O)c1cc(C)ccc1C | inactive: -0.872%
43 | O=C1CC(c2nc3ccccc3[nH]2)CN1c1cccc(Cl)c1 (centres undefined) | inactive: 1.45%
44 | Cc1cc(Cl)ccc1NC(=O)c1cc(S(=O)(=O)N2CCOCC2)cn1C | inactive: 7.84%

Row | Structure (SMILES) | activity change, negative = cytotoxicity
45 | O=C(CSc1nc2ccccc2n1Cc1ccccc1)N1CCN(c2ccc(F)cc2)CC1 | inactive: -4.22%
46 | COc1ccc(-n2cc(C(=O)NCc3ccccc3)c3ccccc3c2=O)cc1 | inactive: -1.81%
47 | Cc1cc(C)c2c(CC(=O)N3CCN(c4cccc(Cl)c4)CC3)coc2c1 | inactive: -0.357%
48 | CCOc1ccccc1N1CC(c2nc3ccccc3n2CCOc2ccccc2)CC1=O (centres undefined) | inactive: -10.6%
49 | CCc1cccc(NC(=O)Cn2c(=O)ccc3cc(S(=O)(=O)N4CCC(C)CC4)ccc32)c1 | inactive: 4.61%
50 | CCc1ccc(CNc2ncnc3c2nc2n3CCCC2)cc1 | inactive: -11.2%
51 | O=C(c1ccc2c(c1)N(Cc1ccc(Cl)cc1)C(=O)c1ccccc1S2=O)N1CCOCC1 (centres undefined) | inactive: 14.1%
52 | COc1cccc(N2CCN(C(=O)c3ccc(Cn4c(=O)[nH]c5cc(OC)c(OC)cc5c4=O)cc3)CC2)c1 | inactive: -25.7%
53 | CC1CCc2nc3ncn(Cc4ccccc4C#N)c(=O)c3cc2C1 (centres undefined) | inactive: 3.28%
54 | CCC(=O)N1c2ccccc2CC1C(=O)NCCc1ccccc1C (centres undefined) | inactive: 5.58%
55 | Cc1c(Cl)cccc1NC(=O)c1cnc2sc(N3CCOCC3)nn2c1=O | inactive: 3.29%
56 | CCN(c1ccccc1)S(=O)(=O)c1ccc(NC(=O)c2cc(=O)c3cc(C)cc(C)c3o2)cc1 | inactive: -3.48%
57 | COc1ccc2oc(=O)cc(CN3CCN(Cc4ccccc4)CC3)c2c1 | inactive: -17.6%
58 | COc1ccc(OC)c(CCNC(=O)CCCn2c(=O)c3cccn3c3ccccc32)c1 | inactive: -4.33%
59 | O=C(CSc1cn(CC(=O)N2CCOCC2)c2ccccc12)Nc1ccccc1F | inactive: 11.2%
60 | Cc1ccc(S(=O)(=O)Nc2ccc3c(c2)CCCN3C(=O)c2cccs2)cc1 | inactive: -10.2%
61 | Cc1cc2ccccc2n1CCNC(=O)c1cccc(Br)c1 | inactive: 16.2%
62 | O=C(Nc1ccc2nn(-c3ccccc3)nc2c1)c1cc2ccccc2o1 | inactive: 12.9%
63 | CCOC(=O)c1scc(-c2ccccc2)c1S(=O)(=O)Nc1cc(OC)cc(OC)c1 | inactive: 12.9%
64 | CC(C)Oc1ccc(CNC(=O)CCCN2C(=O)c3cccnc3Oc3ccc(Cl)cc32)cc1 | inactive: -22.3%
65 | CCN(C(=O)c1cc2c(s1)-c1c(C)cccc1OC2)c1ccccc1F | inactive: -17.6%
66 | CCC(=O)N1CCc2cc(Br)cc(S(=O)(=O)Nc3ccc(C)cc3C)c21 | inactive: -9.64%

Row | Structure (SMILES) | activity change, negative = cytotoxicity
67 | COc1ccc(CC(=O)N2CCc3cc(OC)c(OC)cc3C2COc2ccc(OC)cc2)cc1 (centres undefined) | inactive: -13.8%
68 | Cc1ccc(C)c(NC(=O)c2cnn(-c3cccc(F)c3)c2C2CCN(C(=O)OC(C)(C)C)CC2)c1 | inactive: -19.2%
69 | CCOc1ccc(NS(=O)(=O)c2ccc(-c3cc(C)no3)s2)cc1 | inactive: -26.1%
70 | O=C(Cn1cc(SCc2c(F)cccc2Cl)c2ccccc21)N1CCCCCC1 | inactive: -18.7%
71 | COc1ccc(-n2nc(C(=O)N(C)c3cc(C)ccc3C)c3c4ccccc4n(C)c3c2=O)cc1Cl | inactive: 6.31%
72 | Cc1ccc2c(Sc3ccc(Cl)cc3)c(C(=O)N3CCC(C)CC3)[nH]c2c1 | inactive: -2.77%
73 | COc1ccc(CNS(=O)(=O)c2cnc(N)nc2)c(OC)c1 | inactive: -3.74%
74 | CS(=O)(=O)c1ccc(-c2nnc(NC(=O)c3ccc4c(c3)OCCO4)o2)cc1 | inactive: -2.87%
75 | CNC(=O)c1c(NC(=O)c2ccc(S(=O)(=O)N3CCC(C)CC3)cc2)sc2c1CCC2 | inactive: 1.33%
76 | Cc1cccc(C)c1OCC(=O)NCC1(N(C)C)CCCCC1 | inactive: 1.42%
77 | Cc1ccc(N2C(=O)CSC23C(=O)N(CC(=O)NCc2ccccc2)c2ccccc23)cc1C (centres undefined) | inactive: -2.11%
78 | COc1ccccc1CNC(=O)C1CCC(CNS(=O)(=O)c2ccc3c(c2)CCCC(=O)N3)CC1 (centres undefined) | inactive: -18.1%
79 | COCCCNC(=O)c1ccc(NC(=O)c2nsc3ccccc23)cc1 | inactive: -20.3%
80 | COc1ccc(CNC(=O)c2ccc(N3CCCC3)c(NC(=O)NCc3ccc(F)cc3)c2)cc1 | inactive: 5.81%
81 | CCOc1cc(CNC(=O)c2sc3ncnc(N(C)C4CCCCC4)c3c2C)ccc1OC | inactive: 0.598%
82 | CC(=O)c1ccc(NC(=O)Cn2cc(S(=O)(=O)Cc3cccc(Cl)c3)c3ccccc32)cc1 | inactive: -3.38%
83 | CCC1CN(C(=O)N2CCC(C(=O)NCCN(CC)CC)CC2)c2cc(C)ccc2O1 (centres undefined) | inactive: 3.39%
84 | CCc1ccccc1NC(=O)c1c(NC(=O)c2ccccc2)sc2c1CCCC2 | inactive: 9.4%
85 | Cc1ccc(-c2nnc(SCc3ccccc3C)o2)cc1 | inactive: 10.6%
86 | COc1ccc(S(=O)(=O)Nc2ccc3c(c2)N(C(C)=O)CCC3)cc1F | inactive: -17.5%
87 | CCOC(=O)C1CCC(CN(Cc2cccc(Br)c2)S(=O)(=O)c2ccc(C)cc2)CC1 (centres undefined) | inactive: 4.42%
88 | CCc1ccc(C(=O)c2cn(CC(=O)Nc3ccc4c(c3)OCO4)c3cc(OC)c(OC)cc3c2=O)cc1 | inactive: 13.3%

Row | Structure (SMILES) | activity change, negative = cytotoxicity
89 | O=C(COc1ccc(Cl)cc1)Nc1ccc(-c2nc3ccccc3s2)c(O)c1 | inactive: -2.44%
90 | Cc1ccccc1N1CC(c2nc3ccccc3n2CCC2CCCCC2)CC1=O (centres undefined) | inactive: -16.5%
91 | COc1ccc(CNC(=O)CCn2cccn2)cc1 | inactive: 4.37%
92 | Cc1ccc(C(C)C)c(OCC(=O)NCC2(N(C)C)CCCCC2)c1 | inactive: 4.87%
93 | COc1ccc(CCn2cc3c(c2-c2ccc(Br)cc2)c(=O)n(C)c(=O)n3C)cc1OC | inactive: 0.0745%
94 | Cc1ccccc1C(=O)n1nc(-c2ccco2)nc1NCc1ccc(Cl)cc1 | inactive: 2.73%
95 | COc1ccc(-c2nc(C)c(CCNC(=O)C(=O)Nc3ccccc3OC)s2)cc1 | inactive: 7.4%
96 | O=C(NCCc1ccccc1Cl)c1ccc(Cn2c(=O)c3cccn3c3cccnc32)cc1 | inactive: 0.699%
97 | Cc1ccc(-c2cc3ncc4c(n3n2)-c2cc(C)ccc2OC4)cc1 | inactive: 23.5%
98 | Cc1cccc(Oc2nc3c(C)cccn3c(=O)c2/C=C(\C#N)c2nc3ccccc3[nH]2)c1 | inactive: -1.54%
99 | Cc1ccc2nc(N3CCN(c4cccc(Cl)c4)CC3)c(-n3nc(C)cc3C)nc2c1 | inactive: 4.37%
100 | CCOC(=O)C1=C(CN2CCC(C)CC2)NC(=O)NC1c1ccc(F)cc1 (centres undefined) | inactive: -1.85%
101 | COc1ccc(OC)c2sc(N3CCN(C(=O)C(C)(C)C)CC3)nc12 | inactive: 0.312%
102 | COc1cc(-c2cc(OC)c3c(C)oc(C)c3c(=O)c2)ccc1OC(=O)c1ccccc1Cl | inactive: 4.52%
103 | COc1cc(Cl)c(NC(=O)CCS(=O)(=O)c2cc3c(cc2Cl)NC(=O)CO3)c(OC)c1 | inactive: 4.53%
104 | CCOc1ccccc1C(=O)Nc1ccc(S(=O)(=O)Nc2nc(C)cc(C)n2)cc1 | inactive: -2.85%
105 | CCc1cccc(NC(=O)CSC2=Nc3ccccc3N=C(c3ccc(F)cc3)C2)c1 | inactive: -2.81%
106 | Cc1ccc2nc(NC(=O)COc3ccc(F)cc3)sc2c1 | inactive: 22.4%
107 | O=C(CSc1nnc(CNC(=O)c2cccc(F)c2)n1-c1ccccc1)Nc1ccccc1F | inactive: 10.2%
108 | Cc1ccc(NC(=O)Cn2cnc3sc(C(=O)O)c(C)c3c2=O)cc1Cl | inactive: 10.4%
109 | CCN1CCN(c2nc3c(S(=O)(=O)c4ccc(Br)cc4)nnn3c3ccsc23)CC1 | inactive: 2.25%
